Assay results: the RNAGym collection of RNA variant scans (doi:10.1093/nar/gkz1192)
The source gives no read counts; variants with many changes may rest on few reads.

B1: CPEB3 Ribozyme (parent)
chain: UAACAGGGGGCCACAGCAGAAGCGUUCACGUCGCAGCCCCUGUCAGAUUCUGGUGAAUCUGCGAAUUCUGCUGUAUAUCUC

Variants of: B1
Test: self-cleavage, relative activity (ratio to wild type); higher = more cleavage; in vitro, sequencing
Summary of the method: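 Barcoded CPEB3 ribozyme mutants, produced by rounds of error-prone PCR, self-cleaved while being transcribed with T7 RNA polymerase for 5 hours at 37°C and during a subsequent 15 min DNase I step before EDTA was added. Sequencing of template-switched cDNA on Illumina gave cleaved and total reads, and DNA sequencing assigned barcodes to variants. Each variant's relative activity is its cleaved/total read fraction divided by the unmutated ribozyme's fraction, averaged across three batches. A variant needed a minimum of 5 reads.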

Variant | self-cleavage
A2G U25C C39U | 0.51
A2G U25C G30A U48C U54C A56U U80C | 0.14
A2G U25C G30C C40A A65G U72A A77G | 0.03
A2G U25C U26C G30A U54A U60C U76A | 0.05
A2G U25C U31C A47G A64U | 0.25
A2G U25C U31C U54C A56U U72C U80C | 0.06
A2G U25C U48C | 0.28
A2G U25C U49A A57G | 0.07
A2G U25C U49A G53U | 0.06
A2G U25C U58C | 0.09
A2G U25C U69A | 0.22
A2G U26A A28U U69C | 0.35
A2G U26A C40U U74A | 0.3
A2G U26A G33C | 0.52
A2G U26A G53A | 0.23
A2G U26A U31C A65G U69C | 0.19
A2G U26A U48C U60C | 0.3
A2G U26A U49A A57U | 0.18
A2G U26A U67C U69C U72C | 0.42
A2G U26C A35U U78C | 0.07
A2G U26C A45U U72A | 0.05

Variant | self-cleavage
A2G U26C C29A U74A U80C | 0.08
A2G U26C C37G C44A U78C | 0.18
A2G U26C U51C U54C G61A | 0.35
A2G U26G U51C A77G U80C | 0.28
A2G U26G U67G | 0.24
A2G U31A A35U A45G U49C C79U | 0.23
A2G U31A A45C G63A A65G | 0.3
A2G U31A A45G U48C G63A | 0.28
A2G U31A U49G | 0.56
A2G U31A U54C U60C U66C A77G | 0.06
A2G U31C A35G U60G | 0.24
A2G U31C C79U | 0.73
A2G U31G A35G C37U A47G U76C | 0.98
A2G U41C A64G | 0.55
A2G U41C A65G U72C | 0.5
A2G U41C C62U U72C | 0.15
A2G U41C U43A | 0.62
A2G U41C U43C | 0.53
A2G U41C U69G | 0.66
A2G U41G A57G A77G | 0.05
A2G U41G C44G U51C A56G | 0.43

Variant | self-cleavage
A2G U43A U49G | 0.5
A2G U43C U48C U69A | 0.08
A2G U43C U51C U60A | 0.16
A2G U43C U51G | 0.59
A2G U43C U54A U78C | 0.37
A2G U43C U60C | 0.21
A2G U43C U66A | 0.29
A2G U48G A65G U78A | 0.26
A2G U49C U72A | 0.16
A2G U51A A57G | 0.24
A2G U51A U67A | 0.4
A2G U51C U60A U78C | 0.69
A2G U51C U66G | 0.27
A2G U54A A64G | 0.66
A2G U54A U74A | 1.07
A2G U54A U76A | 0.6
A2G U54C U60C A65G | 0.09
A2G U58A U69A U80A | 0.18
A2G U58A U72C | 0.23
A2G U58C A65G | 0.16
A2G U60A U67A | 0.14

Variant | self-cleavage
A2G U60A U80C | 0.45
A2G U60C C62U U67C G70A | 0.58
A2G U60C C79A | 0.42
A2G U60C U67C A75G | 0.09
A2G U60C U74C | 0.13
A2G U66A U67C U72A | 0.11
A2G U66C U80A | 0.36
A2G U67A U80C | 0.16
A2G U69A U72C U76C | 0.57
A2G U78C U80C | 0.62
A2U A3G A5G G19U U76A | 0.17
A2U A3G A18G U43G U51C | 0
A2U A3G A21G A45G U51A G52U | 0.51
A2U A3G A21G U72A G73U | 0.85
A2U A3G A21U A57G A64U U69C U72A | 0.07
A2U A3G C4A A18U U67C | 0.26
A2U A3G G9A U26C C39U U66C U76A | 0.03
A2U A3G U25C G36A A65U U80C | 0.32
A2U A3G U26C U31A | 0.18
A2U A3G U31A A47G A64U A77G | 0.26
A2U A3G U31A U67C | 0.32
